# In PubChem BioAssay AID624296 (National Center for Advancing Translational Sciences (NCATS), 2012):
# Among all 350,000 compounds or so, about 9,900 (2.8%) were called active. Inconclusive results, whose numbers are uncertain, are shown with a selection of clear calls. Calls follow the shape of the dose curve; as a rule, active = well fitted activation curve with a large enough effect; inconclusive = small, poorly fitted or top-dose-only effect; inactive = no such curve, though single readings can be large or run the other way. No potency is given beside an inconclusive call; the fits are too rough. More than one record can exist for a structure, and the calls need not agree.
# Assay: A quantitative high throughput screen for small molecules that induce DNA re-replication in MCF 10a normal breast cells. Also: nearly all actives have a fitted effect of over 50% in size.
# Conditions: MCF 10A DNA re-replication, Hoechst nuclear intensity, 48 h; series mostly up to 46.1 µM
# Potency is read from the fitted curve at half-maximal effect; tags tell the direction and shape of the fitted curve.
row,SMILES,Potency
1,CCc1c(C)sc(NC(=S)NC(C)C2CCCO2)c1C(=O)OC (stereo not given),"inconclusive [activator, full curve, poor fit]"
2,N#CCCn1cc(/C=N/NC(N)=S)c(-c2ccc(-c3ccccc3)cc2)n1,"inconclusive [activator, single point]"
3,Cc1ccc(S(=O)(=O)N(C)C)cc1NC(=O)C1CCN(C(=O)Nc2ccccc2)CC1,"inconclusive [activator, partial curve, poor fit]"
4,CC(C)Cc1cc(C(=O)N2CCC(N3CCC(C(=O)N4CCOCC4)CC3)CC2)n[nH]1,inactive
5,COc1ccc(N(Cc2cc3ccccc3[nH]c2=O)S(=O)(=O)c2ccc(OC)cc2)cc1,"inconclusive [activator, single point]"
6,O=C(Nc1cc(S(=O)(=O)N2CCOCC2)ccc1N1CCOCC1)c1ccc([N+](=O)[O-])s1,"inconclusive [activator, single point]"
7,COc1ccc(CNC(=O)COC(=O)c2cc(-c3ccc(Cl)s3)nc3ccccc23)cc1,"inconclusive [activator, full curve, poor fit]"
8,COc1ccc(C(=O)NC(=S)N2CCC(C)CC2)cc1,inactive
9,CCCN(CC(=O)Nc1ccccc1OC)C(=O)c1cc(-c2ccccc2)nn1-c1ccccc1,"inconclusive [activator, single point]"
10,O=[N+]([O-])c1cc(Cl)cc(C2=NCCN2)c1,"inconclusive [activator, full curve, poor fit]"
11,CC(NNC(=O)c1ccccc1)c1ccccc1 (stereo not given),inactive
12,CS(=O)(=O)N(CC(=O)NC1CCCCC1)c1cccc(Cl)c1,"inconclusive [activator, single point]"
13,CCN(CC)CCOCCOC(=O)C(CC)(CC)c1ccccc1 (tested in a mixture with another compound),active: 29.9 µM
14,Cc1nc(N)sc1-c1csc(Nc2ccccc2)n1,"inconclusive [activator, single point]"
15,CCOc1ccc(/C=C/C(=O)c2c(O)cc(C)oc2=O)cc1,"inconclusive [activator, single point]"
16,Cc1ccc(NC(=O)CSCC(=O)N2CCCc3ccccc32)cc1,inactive
17,CC(C)c1nc(SCC(=O)Nc2ccc(N(C)C)cc2)c2ccccc2n1,"inconclusive [activator, single point]"
18,FC(F)Sc1ccc(NC(=S)NC2CCCCC2)cc1,"inconclusive [activator, single point]"
19,COc1ccccc1OCC(=O)N/N=C/C=C/c1ccc([N+](=O)[O-])o1,"inconclusive [activator, single point]"
20,OCC1(CO)COC(C(Cl)(Cl)Cl)OC1,inactive
21,CCCN(C(=O)c1c(-c2ccccc2)noc1C)c1c(N)n(Cc2ccccc2)c(=O)[nH]c1=O,"inconclusive [activator, partial curve, poor fit]"
22,CSC(=NS(=O)(=O)c1ccc(N)cc1)NS(=O)(=O)c1cccs1,inactive

row,SMILES,Potency
1,O=C(NCC(c1cccs1)N1CCOCC1)c1ccccc1NS(=O)(=O)c1ccc(Br)cc1 (stereo not given),"inconclusive [activator, single point]"
2,CCOC(=O)c1cc(-c2ccc(F)cc2)nc2c1c(=O)[nH]c(=O)n2Cc1ccccc1,inactive
3,CCN(CC)S(=O)(=O)c1ccc(C(C)NCC(=O)Nc2ccccc2C(=O)NC2CC2)cc1 (stereo not given),"inconclusive [activator, partial curve, poor fit]"
4,CCCCN(CCCNC(=O)C1CCN(S(=O)(=O)N2CCOCC2)CC1)c1ccccc1,"inconclusive [activator, single point]"
5,COc1ccc(NC(=O)Cc2coc3cc(C)c(C(C)C)cc23)cc1S(=O)(=O)N1CCOCC1,"inconclusive [activator, single point]"
6,Cc1ccc2nc(N)[nH]c(=O)c2c1Sc1ccncc1,"inconclusive [activator, full curve, poor fit]"
7,CCN(c1ccccc1)S(=O)(=O)c1cc(C(=O)NCC(c2ccco2)N2CCCCC2)ccc1C (stereo not given),"inconclusive [activator, single point]"
8,CCOc1ccc(/C=N/Nc2cc(N3CCOCC3)nc(C)n2)c(O)c1,"inconclusive [activator, partial curve, poor fit]"
9,Cc1ccc(S(=O)(=O)N(Cc2cccnc2)Cc2cc3ccccc3[nH]c2=O)cc1,inactive
10,Cc1nc2sc(C(c3ccc(Cl)cc3)N3CCOCC3)c(O)n2n1 (stereo not given),"inconclusive [activator, single point]"
11,CC(C)(C)c1ccc2c(S(=O)(=O)O)c(C(C)(C)C)ccc2c1,inactive
12,NS(=O)(=O)c1ccc(NS(=O)(=O)c2cccs2)cc1,"inconclusive [activator, single point]"
13,Fc1cccc(Cl)c1/C=N/n1c(-c2cccnc2)n[nH]c1=S,inactive
14,O=C(CN1C(=O)c2ccccc2S1(=O)=O)NC1CC2CCC1C2 (stereo not given),"inconclusive [activator, single point]"
15,CN(C)c1nc(NC(C)(C)C)nc(SCC(=O)Nc2ccccc2)n1,inactive
16,NC(=Nc1ccc(N)cc1)C(N)=Nc1ccc(N)cc1,"inconclusive [activator, partial curve, poor fit]"
17,Cc1ccc(S(=O)(=O)N(C)c2ccc(C(=O)Nc3cccnc3)cc2)cc1,inactive
18,COc1cc(C2C(C#N)=C(N)Oc3cc(C)n(CCc4ccccc4)c(=O)c32)cc2c1OCO2 (stereo not given),"inconclusive [activator, single point]"
19,O=C(O)C1=C[C@@H](C2CC2)C[C@@H](OCc2ccc(CO)cc2)O1,"inconclusive [activator, single point]"
20,Cc1ccc(/C=C2\CCC3=C2OC(N)=C(C#N)C3c2ccc(C)cc2)cc1 (stereo not given),active: 2.91 µM
21,Cc1cnc(NC(=O)c2ccc(OCC3CCCO3)cc2)s1 (stereo not given),inactive
22,CC(=O)Nc1ccc(N/C=C(\C=O)c2nc3ccccc3o2)cc1,"inconclusive [activator, single point]"

row,SMILES,Potency
1,COc1cccc(/C=N/NC(=O)c2ccc([N+](=O)[O-])cc2Cl)c1O,"inconclusive [activator, full curve, poor fit]"
2,O=C(COc1coc(CN2CCCc3ccccc32)cc1=O)Nc1ccc([N+](=O)[O-])cc1,"inconclusive [activator, full curve, poor fit]"
3,Cc1cc2cc(CNC(=S)Nc3ccc(OC(F)F)cc3)ccc2[nH]1,"inconclusive [activator, partial curve, poor fit]"
4,COc1ccc(-c2cc(C(=O)N3CCN(Cc4ccc5c(c4)OCO5)CC3)on2)cc1OC,"inconclusive [activator, single point]"
5,N#C/C(=C/N1CCOCC1)c1ccccc1,"inconclusive [activator, single point]"
6,CN1CCN(c2ccccc2NC(=O)c2cc3c(s2)-c2ccccc2OC3)CC1,"inconclusive [activator, single point]"
7,O=C(CCl)Nc1ccccc1Sc1ccccc1,"inconclusive [activator, partial curve, poor fit]"
8,COc1ccc(C(=O)CCS(=O)(=O)c2ccc(C)cc2)cc1OC,"inconclusive [activator, single point]"
9,Cc1ccc(NC(NC(=O)c2cccs2)C(Cl)(Cl)Cl)cc1C (stereo not given),"inconclusive [activator, single point]"
10,CN[C@@H]1CC[C@H](c2ccc(Cl)c(Cl)c2)c2ccccc21,"inconclusive [activator, full curve, poor fit]"
11,CC(=O)Nc1ccc2c(c1)C(N1CC3CCC(CC3)C1)c1ccccc1-2 (stereo not given),"inconclusive [activator, partial curve]"
12,CCOC(=O)CSc1nc2c(sc(=S)n2Cc2ccco2)c(=O)n1-c1ccc(F)cc1,"inconclusive [activator, single point]"
13,CCOC(=O)[C@H]1[C@H]2COc3ccc(C)cc3[C@@H]2N2C(=O)[C@@H](CO)NC(=O)[C@@]12C,"inconclusive [activator, full curve, poor fit]"
14,O=S(=O)(c1ccc(C(F)(F)F)cc1)N1CCCN(c2ccc(C(F)(F)F)cn2)CC1,"inconclusive [activator, single point]"
15,Cc1ccc(NC(=O)C2C(=O)N(C)c3ccccc32)cc1 (stereo not given),"inconclusive [activator, single point]"
16,CCOC(=O)Cc1csc(NC(=O)CN2CCOCC2)n1,inactive
17,COc1cc(Cl)cc(C(=O)O)c1OCC(=O)O,"inconclusive [activator, partial curve, poor fit]"
18,COc1ccc(-c2ccc(/C=C3/C(=N)N4C(C)=CSC4=NC3=O)o2)c([N+](=O)[O-])c1,active: 20.6 µM
19,CC(=O)N1CCN(c2ccc(NC(=O)c3ccccc3)cc2)CC1,inactive
20,O=C(Nc1nsc(-c2ccccc2)n1)c1cccs1,"inconclusive [activator, single point]"
21,COc1ccc2cc3cc(C(=O)NCCN4CCc5ccccc5C4)oc3nc2c1,"inconclusive [activator, single point]"
